Test results: PubChem BioAssay AID2060908 (Molecular Pharmacology Branch, DTP, NCI, 2025)
For part of its entries the source gives two or more results. The other results are left out here. There may be further records. The records of an entry are repeats (runs, samples, wells, individuals or studies). Signs of the kind (2×) give the number of equal values in this list. Dates in brackets are months of testing.

System: 186277-243-T-J2-PDC complex spheroids, viability
Test: Anticancer human tumor 186277-243-T-J2-PDC patient-derived colon adenocarcinoma cell line growth inhibition [RAS]
Conditions: for viability, T/C: stronger effect = lower value; for IC50: compound alone
Excerpt: RAS pathway inhibitors in Combinations in Complex Spheroids
A high-throughput screen of multi-cell type tumor spheroids was designed to identify active combinations of RAS pathway inhibitors and targeted small molecules. Complex spheroids include a stromal component modeled by human endothelial cells (HUVEC) and fibroblasts modeled by human mesenchymal stem cells (MSCs). The concentration ranges selected for each drug and investigational agent were based upon clinically achievable concentrations if the clinical Cmax of the agent was known.
Compounds. The drugs and investigational agents: abemaciclib (NSC768073), cobimetinib (NSC768068), divarasib (GDC6063, NSC841802), docetaxel (NSC628503), GDC-1971 (RLY-1971, NSC841576), gemcitabine (NSC613327), inavolisib (NSC800729), ipatasertib (NSC767898), KB-0742 (NSC834161), MRTX-1133 (NSC836407), osimertinib (NSC779217), RMC-4630 (NSC839698), RMC-6236 (NSC851965), RMC-6291 (NSC852671), Ro-3306 (NSC812927), sapanisertib (NSC764658), SN-38 (NSC673596), staurosporine (NSC755774), SY5609 (NSC837396), and tovorafenib (DAY101, NSC766906), were obtained from the National Cancer Institute (NCI) Developmental Therapeutics Program Chemical Repository. The FDA-approved anticancer drug set is available from the NCI Developmental Therapeutics Program. […] The stock solutions were prepared in dimethyl sulfoxide (DMSO, Sigma-Aldrich, St. Louis, MO, cat. D2650) at 800-fold the tested concentration and stored at -70 degrees C prior to their use. All drugs and investigational agents were tested over a range starting from a high concentration at or near the clinical Cmax and decreasing in half-log increments. If the clinical Cmax for an agent had not been determined, the highest concentration tested was 10 microM.
Cell Culture. All cells were maintained in an incubator at 37 degrees C and 5% CO2 with 95% humidity. The PDC lines were cultured according to standard operating procedures established by the NCI PDMR. All PDCs were thawed and cultured in Matrigel-coated flasks prepared with a working solution of 1X Ham's F-12 nutrient mix, without supplementation (Invitrogen, Waltham, MA, cat. 11765054), 100 U/mL penicillin-streptomycin (Invitrogen, cat. 15140122), and 2.5% Matrigel (Corning Inc., Corning, NY, cat. 354248) for the first three passages. The 362531-283-R-J2-PDC and 782815-120-R-J1-PDC lines were cultured in 6C/Colon 1B media, which includes advanced DMEM/F-12 (Thermo Fisher Scientific, cat. 12634028), 10 mM HEPES (Thermo Fisher Scientific, cat. 15630080), 1X GlutaMAX supplement (Thermo Fisher Scientific, cat. 35050061), 0.1 mg/mL primocin (InvivoGen, San Diego, CA, cat. ant-pm-2), 10% defined fetal bovine serum, heat inactivated (HyClone Laboratories Inc., Logan, UT, cat. SH30070.03HI), 50% L-WRN conditioned media (ATCC, cat. CRL-3276), 1.25 mM N-Acetyl-L-cysteine (Sigma-Aldrich, cat. A9165), 10 mM nicotinamide (Sigma-Aldrich, cat. N0636), 1X B-27 supplement (Thermo Fisher Scientific, cat. 17504044), 1X N-2 supplement (Thermo Fisher Scientific, cat. 17502048), 50 ng/mL human EGF (Thermo Fisher Scientific, cat. PHG0311), and 10 microM Y-27632 dihydrochloride (Tocris Bioscience, cat. 1254). The K12877-001-R-J1-PDC line was cultured in 6I media, which includes all 6C/Colon 1B media plus 10 ng/mL human FGF-10 (PeproTech, cat. 100-26), 1 ng/mL human FGF-2 (PeproTech, cat. 100-18B), 1 µM prostaglandin E2 (Tocris Bioscience, cat. 2296), […] hydrocortisone (Sigma-Aldrich, cat. H4001), and […] bovine insulin (Sigma-Aldrich, cat. I6634). The K86415-001-R-J1-PDC line was cultured in 6D media, which includes all 6C/Colon 1B media components minus the L-WRN conditioned media. The 485176-168-R4-J1-PDC was cultured in PANC media, which includes all 6C/Colon 1B media plus 100 ng/mL human FGF-10 (PeproTech, cat. 100-26), 500 nM SB-431542 (Selleckchem, cat. S1067), and 10 nM gastrin (Tocris Bioscience, cat. 3006). […]
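Also: spheroids exposed to compounds for 7 days before viability read.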

SMILES: CCN1CCN(Cc2ccc(Nc3ncc(F)c(-c4cc(F)c5nc(C)n(C(C)C)c5c4)n3)nc2)CC1
- viability, T/C (compound alone 0.00316 µM): 92.2%, 95.6% [2024-05] and 122%, 127% [2024-06]
- viability, T/C (compound alone 0.0316 µM): 140%, 114% [2024-05] and 128%, 134% [2024-06]
- viability, T/C (compound alone 0.316 µM): 175%, 156% [2024-05] and 107%, 134% [2024-06]
- viability, T/C (compound alone 1 µM): 123%, 125% [2024-05] and 92.9%, 102% [2024-06]

SMILES: C=CC(=O)Nc1cc(Nc2nccc(-c3cn(C)c4ccccc34)n2)c(OC)cc1N(C)CCN(C)C
- viability, T/C (compound alone 0.01 µM): 95.3%, 98% [2024-05] and 70.1%, 92.9% [2024-06]
- viability, T/C (compound alone 1 µM): 82.7%, 92.6% [2024-05] and 80.5%, 106% [2024-06]

SMILES: CCc1c2c(nc3ccc(O)cc13)-c1cc3c(c(=O)n1C2)COC(=O)[C@]3(O)CC
- IC50: 9.34 nM, 12.7 nM [2024-05] and 29.8 nM, 24.2 nM [2024-06]
- viability, T/C (compound alone 0.000949 µM): 135%, 119% [2024-05] and 101%, 123% [2024-06]
- viability, T/C (compound alone 0.003 µM): 74.5%, 81.3% [2024-05] and 108%, 99.2% [2024-06]

SMILES: C=CC(=O)N1CCN(c2nc(OCC3CCCN3C)nc3c(F)c(-c4nc(N)cc(C)c4C(F)(F)F)c(Cl)cc23)C(C)C1 (stereo not given)
- viability, T/C (compound alone 0.00316 µM): 93.2%, 107% [2024-05] and 98.3, 107, 93.5, 91.7, 83.7, 91.8, 92.2, 116, 109, 97.5% [2024-06]
- viability, T/C (compound alone 0.01 µM): 93.6%, 70.9% [2024-05] and 96.3, 85.9, 95.8, 110, 93.3, 99, 100, 98.7, 88.1, 97.2% [2024-06]
- viability, T/C (compound alone 0.1 µM): 93.3%, 89.7% [2024-05] and 108 (2×), 110, 113, 78.2, 94, 96, 102, 90.8, 111% [2024-06]
- viability, T/C (compound alone 0.316 µM): 94.5%, 99.2% [2024-05] and 82.5, 114 (2×), 84.5, 95.9, 101, 93.1, 105, 88.4, 106% [2024-06]
- viability, T/C (compound alone 1 µM): 107%, 92% [2024-05] and 111 (2×), 82.9, 85.3, 106, 93, 101, 108, 98.5, 104% [2024-06]

SMILES: CC(C)n1nc(-c2ccc3oc(N)nc3c2)c2c(N)ncnc21
- IC50: 57.4 nM, 49.1 nM [2024-05] and > 100 nM, 96 nM [2024-06]
- viability, T/C (compound alone 0.0316 µM): 66.6%, 60.3% [2024-05] and 87.7%, 100% [2024-06]

SMILES: Cc1nc(N2CCC3(CC2)COC(C)C3N)c(CO)nc1Sc1ccnc(N)c1Cl (stereo not given)
- viability, T/C (compound alone 0.1 µM): 119%, 95.6% [2024-05] and 98.1%, 93% [2024-06]
- viability, T/C (compound alone 10 µM): 143%, 124% [2024-05] and 92.8%, 82.2% [2024-06]

SMILES: CC1(C)CCC(Nc2ncc(C(F)(F)F)c(-c3c[nH]c4c(P(C)(C)=O)c(C#N)ccc34)n2)CN1 (stereo not given)
- viability, T/C (compound alone 0.03 µM): 80.8%, 87.7% [2024-05] and 61.1%, 73.1% [2024-06]

SMILES: CC(Nc1ccc2c(c1)OCCn1cc(N3C(=O)OCC3C(F)F)nc1-2)C(N)=O (stereo not given)
- IC50: 5.98 µM, 1.22 µM [2024-05] and 728 nM, 823 nM [2024-06]
- viability, T/C (compound alone 3.16 µM): 98.3%, 37.6% [2024-05] and 29.6%, 36.3% [2024-06]

SMILES: NC1c2ccccc2OC12CCN(c1cnc3c(N4CCCc5ncccc54)n[nH]c3n1)CC2 (stereo not given)
- viability, T/C (compound alone 0.0316 µM): 93.3%, 95.3% [2024-05] and 124%, 99.7% [2024-06]
- viability, T/C (compound alone 0.1 µM): 78.1%, 104% [2024-05] and 91.4%, 114% [2024-06]
- viability, T/C (compound alone 1 µM): 118%, 125% [2024-05] and 84.2%, 77% [2024-06]
- viability, T/C (compound alone 3.16 µM): 100%, 107% [2024-05] and 105%, 73.8% [2024-06]

SMILES: CCn1c(-c2cccnc2C(C)OC)c2c3cc(ccc31)N1CCOC(CC(NC(=O)C(C(C)C)N(C)C(=O)C3(F)CCN(C(=O)C#CC(C)(C)N(C)C)CC3)C(=O)N3CCCC(N3)C(=O)OCC(C)(C)C2)C1 (stereo not given)
- viability, T/C (compound alone 0.00949 µM): 92.9, 97, 105, 92.2, 108, 116, 88.4, 100%
- viability, T/C (compound alone 0.0949 µM): 94.9, 100 (2×), 114, 95.2, 118, 91.9, 104%

SMILES: CC1(O)CCCC1n1c(=O)c(C(F)F)cc2cnc(NC3CCN(S(C)(=O)=O)CC3)nc21 (stereo not given)
- viability, T/C (compound alone 0.316 µM): 114%, 124% [2024-05] and 96.5%, 92.7% [2024-06]
- viability, T/C (compound alone 1 µM): 87.2%, 108% [2024-05] and 81.9%, 80% [2024-06]

SMILES: CCn1c(-c2cc(N3CCN(C)CC3)cnc2C(C)OC)c2c3cc(ccc31)-c1csc(n1)CC(NC(=O)C1CC1C)C(=O)N1CCCC(N1)C(=O)OCC(C)(C)C2 (stereo not given)
- viability, T/C (compound alone 0.003 µM): 109, 103, 96.8, 102, 85.5, 105, 113, 100%
